Hit rate of the full screen: of about 44,000 compounds, about 340 (0.77%) were called active. Another 5% or so got no clear call; they are omitted. Calls come from the whole dose curve; as a rule, active = well fitted inhibition curve with a large enough effect; inconclusive = small, poorly fitted or top-dose-only effect; inactive = flat fitted curve, though single readings scatter. The list shows a part of the results.
Experiment: Acumen qHTS Assay for Inhibitors of the mTORC1 Signaling Pathway in MEF (Tsc2-/-, p53-/-) Cells: Sytravon;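 note: plate controls were DMSO for no effect and rapamycin for full effect; nearly all actives have a fitted effect of over 50% in size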
Settings: phospho-rpS6 immunofluorescence/PI, 24 h; series mostly up to 38.3 µM; activity change, negative = inhibition: at the top concentration
In short: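 Immunofluorescence of rpS6 phosphorylation in Tsc2-/-, p53-/- MEFs after 24 h compound exposure, normalized to propidium iodide signal. Activity is expressed as % positive cells, thresholded with 7.5 nM rapamycin.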

Activity change, negative = inhibition, inactive:
CCOC(=O)c1cccc(Nc2nc(C(=O)OCC)nc3ccccc23)c1 0.266%, CCCCCn1c(=O)[nH]c2cc(C(=O)N3CCN(c4ccccc4F)CC3)ccc2c1=O 3.68%, CCOC(=O)c1[nH]c2ccccc2c1NC(=O)c1ccc(OCC)cc1 -33.1%, Cc1ccc(-n2ncc3c(NCCCn4ccnc4)ncnc32)cc1 9.35%, Cc1ccc(NC(=O)c2cc(-c3cccs3)on2)cc1C -20.3%, CCN1CCN(CCCNC(=O)c2cnn(-c3ccc(C)cc3)c2C2CCN(C(=O)OC(C)(C)C)CC2)CC1 0.646%, COc1ccc(S(=O)(=O)NCCS(=O)(=O)N2CCN(c3ccccc3F)CC2)cc1 -1.57%, COc1cccc(-n2c(SCC(=O)Nc3ccc(F)cc3F)nc3c([nH]c4ccccc43)c2=O)c1 -23.8%, c1csc(-c2nc3ccccn3c2Nc2ccc3c(c2)OCCO3)c1 -1.14%, COc1cc(-c2nc3cccc(C)n3c2Nc2ccc3c(c2)OCCO3)ccc1O 0.545%, CCCCOC(=O)c1ccc(NC(=O)CSc2nc3c(c(=O)[nH]2)CCC3)cc1 -0.202%, CC(=O)c1ccc(N2CCN(c3ncnc4onc(-c5ccc(Cl)cc5)c34)CC2)cc1 -0.639%, CCOc1cc(-c2ccc(OC(=O)c3ccc(Cl)cc3)c(OC)c2)cc(=O)c2c(C)oc(C)c12 -1.23%, Cc1nnc(N2C(=O)c3oc4ccccc4c(=O)c3C2c2ccc(F)cc2)s1 (stereo not drawn) -3.64%, Cc1c(C(=O)NCc2ccc(F)cc2)sc2nc(-c3ccccc3)cn12 1.54%, COc1ccc(CCNC(=O)c2ccc(Cn3c(=O)c4ccccc4n(Cc4ccccc4Cl)c3=O)cc2)cc1OC 3.42%, COC(=O)c1c(-c2ccc(Cl)cc2)noc1N1CCN(c2cccc(OC)c2)CC1 4.21%, CCOc1ccccc1C(=O)NCC(c1ccc(N(C)C)cc1)N1CCc2ccccc21 (stereo not drawn) 1.6%, Oc1c(C(c2ccc(Cl)cc2)N2CCCC2)sc2nc(-c3ccco3)nn12 (stereo not drawn) 1.44%, O=C(Cc1ccc(NC(=O)N2CCCCc3ccccc32)cc1)Nc1ccccc1Br -0.834%, Cc1cccc(NC(=O)CN(C)S(=O)(=O)c2cnc[nH]2)c1C 1.01%, Cc1ccccc1CN1c2ccccc2-c2nc(SCC(=O)Nc3cc(F)ccc3F)ncc2S1(=O)=O 5.68%, Cc1cc(C)c(NC(=O)CN2C(=O)CCn3nc(-c4cccn4C)cc32)c(C)c1 -8.98%, Cc1ccc(-n2ncc(C(=O)NCCCN3CCN(C)CC3)c2C2CCN(C(=O)OC(C)(C)C)CC2)cc1 3.96%, CCCCC(=O)N1CCN(c2nc3c(C)c(C)ccc3s2)CC1 -5.37%, CCCCNc1cc(N2CCN(C3CCCCC3)CC2)c2noc3c2c1C(=O)c1ccccc1-3 -2.73%, Cc1cc(C)c(NC(=O)CSc2cn(CC(=O)N3CCOCC3)c3ccccc23)c(C)c1 -7.48%, Cc1cc(C)c2c(n1)SCC(=O)N2CC(=O)Nc1cccc(C)c1C -0.0071%, Cc1oc2ncn(CC(C)C)c(=O)c2c1C(=O)NCCCN1CCCCC1C (stereo not drawn) 3.49%, COc1cccc(Cn2c(=O)n(CC3CCC(C(=O)N4CCOCC4)CC3)c(=O)c3sccc32)c1 (stereo not drawn) -10.8%, CCOc1ccc(NC(=O)c2oc3ccccc3c2NC(=O)Cc2cccs2)cc1 2.16%, CCN1CCN(C(=O)c2ccc3c(c2)N(Cc2ccc(Cl)cc2)C(=O)c2ccccc2S3=O)CC1 (stereo not drawn) -7.63%, CCc1ccc(Cn2c(CNS(=O)(=O)c3ccc4c(c3)CCCC4)nc3cccnc32)cc1 -2.01%, CCc1ccc2c(c1)c(=O)c(C(=O)c1ccccc1)cn2CC(=O)Nc1ccc(C)c(Cl)c1 3.09%, CCc1ccc2c(c1)c(=O)c(C(=O)c1ccc(C)cc1)cn2CC(=O)Nc1ccccc1C 4.3%, COc1ccc(-c2nnc(SCC(=O)NCCc3ccccc3)nc2-c2ccc(OC)cc2)cc1 11%, Cc1cccc(C)c1OCC(=O)Nc1c(C(=O)c2ccccc2)oc2ccccc12 -8.98%, CCc1ccccc1NC(=O)c1ncoc1-c1ccco1 11.5%, COc1ccc(-c2c(C)nn3c(-c4ccccc4)cc(-c4ccccc4)nc23)cc1 -5.21%, Cc1ccc(C)c(N2CCN(C(=O)c3cccn4c(=O)c5ccccc5nc34)CC2)c1 0.312%, CCCCOC(=O)c1ccc(NC(=O)c2cc(=O)c3ccccc3o2)cc1 5.56%, Cc1cc(SCC(=O)Nc2ccc(C(F)(F)F)cc2)nc(=O)[nH]1 -5.97%, CCc1ccc(C(=O)c2cn(CC(=O)Nc3ccc(OC)cc3)c3cc4c(cc3c2=O)OCCO4)cc1 -5.69%, O=C(Nc1ccc(OC(F)(F)F)cc1)C(NS(=O)(=O)c1cccc2nsnc12)c1ccccc1 (stereo not drawn) 0.321%, O=C(O)CCCn1cc(NC(=O)COc2ccccc2F)cn1 -1.75%, Cc1ccc(OCCSc2nc3ccccc3n2CC(=O)NC(C)C)cc1 1.15%, O=C1CSC2(C(=O)N(Cc3c(F)cccc3Cl)c3ccccc32)N1c1ccc(F)c(F)c1 (stereo not drawn) 1.96%, O=C(CSc1ncc2c(n1)-c1cc(Cl)ccc1N(Cc1ccccc1)S2(=O)=O)NCc1ccccc1 -28.7%

Reference: PubChem BioAssay AID493208 (National Center for Advancing Translational Sciences (NCATS), 2011)
